# Hit rate of the full screen: of about 310,000 compounds, about 2,200 (0.71%) showed an effect of 50% or more. The effect is printed as a negative number. The list shows a part of the results.
# Molecular target: human ether-à-go-go-related gene (hERG) potassium channel (human, UniProt Q12809)
# Assay: primary screen, population patch clamp on CHO cells stably expressing hERG
# Chain of human ether-à-go-go-related gene (hERG) potassium channel (Q12809 whole entry, looked up): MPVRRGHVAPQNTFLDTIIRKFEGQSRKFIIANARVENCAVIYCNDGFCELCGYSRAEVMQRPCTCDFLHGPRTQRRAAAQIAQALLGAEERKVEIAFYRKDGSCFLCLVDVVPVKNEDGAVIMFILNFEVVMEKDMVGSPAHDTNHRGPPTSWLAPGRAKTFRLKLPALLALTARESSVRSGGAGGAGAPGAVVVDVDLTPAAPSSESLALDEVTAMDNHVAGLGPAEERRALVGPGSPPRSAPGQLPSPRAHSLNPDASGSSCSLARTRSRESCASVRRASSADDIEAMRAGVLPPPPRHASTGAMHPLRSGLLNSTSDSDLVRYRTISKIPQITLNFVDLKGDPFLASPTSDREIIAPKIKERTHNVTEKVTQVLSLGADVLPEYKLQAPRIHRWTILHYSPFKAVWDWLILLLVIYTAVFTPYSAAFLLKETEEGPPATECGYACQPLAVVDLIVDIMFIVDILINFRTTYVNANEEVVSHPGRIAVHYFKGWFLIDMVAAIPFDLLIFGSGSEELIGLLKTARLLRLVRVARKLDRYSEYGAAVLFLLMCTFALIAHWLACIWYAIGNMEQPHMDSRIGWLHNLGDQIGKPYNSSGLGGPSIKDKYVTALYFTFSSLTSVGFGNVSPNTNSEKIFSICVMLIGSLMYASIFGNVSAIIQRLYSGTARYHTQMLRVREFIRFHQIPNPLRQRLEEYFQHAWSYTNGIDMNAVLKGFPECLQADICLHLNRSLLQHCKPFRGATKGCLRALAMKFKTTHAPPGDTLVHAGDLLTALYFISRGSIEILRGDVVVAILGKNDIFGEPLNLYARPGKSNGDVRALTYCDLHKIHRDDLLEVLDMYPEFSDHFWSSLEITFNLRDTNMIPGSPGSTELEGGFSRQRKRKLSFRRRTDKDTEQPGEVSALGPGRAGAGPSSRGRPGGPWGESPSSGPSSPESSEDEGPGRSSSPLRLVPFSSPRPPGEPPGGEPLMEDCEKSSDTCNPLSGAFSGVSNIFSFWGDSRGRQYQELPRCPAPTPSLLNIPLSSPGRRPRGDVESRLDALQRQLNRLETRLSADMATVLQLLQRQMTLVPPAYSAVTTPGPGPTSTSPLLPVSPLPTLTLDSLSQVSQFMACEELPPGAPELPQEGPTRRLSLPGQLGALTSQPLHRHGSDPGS
row,Compound,"hERG current change (%, negative = inhibition) at 1uM [%]"
1,Cc1cccc(NC(=O)Cc2nnc(NC(=O)Nc3ccccc3F)s2)c1,2.69
2,CCC(C)NC(=O)COc1ccc(S(=O)(=O)N2CCOCC2)cc1 (stereo not drawn),7.49
3,COc1ccccc1CN1CC(C(=O)NCc2cnn(C)c2)CCC1=O (stereo not drawn),9.14
4,COc1ccccc1OC(C)C(=O)N1CCC(Cc2ccccc2)CC1 (stereo not drawn),11.2
5,CCn1cc(C(=O)NNC(=O)c2ccc(Cl)cc2)c(=O)c2ccc(C)nc21,3.33
6,Cc1nn(-c2ccccc2)c(C)c1NC(=O)COC(=O)c1cc(Cl)ccc1O,10.9
7,CC(C)CCC1(CCNC(=O)c2cccs2)CCOC(C)(C)C1 (stereo not drawn),11.8
8,C=CCn1c(SCc2nc3c(c(=O)[nH]c(=O)n3CCCC)n2CCC)nnc1-c1ccccc1,-33.8
9,CCOc1ccc(N2CC(C(=O)NCc3ccco3)CC2=O)cc1 (stereo not drawn),13.9
10,NS(=O)(=O)c1ccc(NC(=O)c2cc(=O)c3ccccc3o2)cc1,19.4
11,Cc1cc(Nc2ccccc2F)n2nc(C)nc2n1,10.2
12,Cc1cccc(C(=O)Oc2ccc3ccc(O)cc3c2)c1,13.2
13,CC(C)NC(=O)NC(=O)COC(=O)c1ccccc1F,7.65
14,COc1ccc(CNC(=O)c2cc(-c3ccc(OC)c(OC)c3)on2)cc1,7.35
15,CCn1c2ccc(C)cc2c2n[nH]c(=S)nc21,15.8
16,CCn1c(SCC(=O)N2CCc3ccccc32)nc2c(c1=O)SC(C)C2 (stereo not drawn),3.15
17,CCN(CC)c1ccc(/C=C2\C(=N)N3N=C(CC(=O)N4CCOCC4)SC3=NC2=O)cc1,13.9
18,COc1ccc(/C(O)=C2/C(=O)C(=O)N(CCCN(C)C)C2c2ccc(Cl)cc2)cc1OC (stereo not drawn),10.7
19,C#CCOCCOCCOCCNc1nc(N2CCN(C(=O)CCCCCCCCCCNC(=O)[C@H](CCCCN)n3cc(CCO)nn3)CC2)nc(N2CCN(C(=O)CCCCCCCCCCNC(=O)[C@H](CCCCN)n3cc(CCCC(=O)O)nn3)CC2)n1,10.1
20,CC(=O)N1CCN(c2ccc(NC(=O)c3ccccc3Cl)cc2)CC1,4.11
21,O=C(C1CCN(Cc2nc(-c3ccc(Cl)cc3)no2)CC1)N1CCOCC1,9.83
22,Cc1ccc(NC(=O)c2cc(NC(=O)c3ccco3)ccc2N2CCCCC2)cc1,11
23,C=CCn1c(SCC(=O)c2ccc(CNC(C)=O)o2)nc2ccccc2c1=O,0.969

row,Compound,"hERG current change (%, negative = inhibition) at 1uM [%]"
1,Cc1cccc(N2C(=O)CCC2=O)c1,3.13
2,CCN(CC)C(=O)COc1ccc2oc(C)c(C(=O)OC)c2c1,2.26
3,O=C(Nc1ccon1)c1cc2c(s1)CCCC2,-6.76
4,Cc1ccc(/C=[N+](/[O-])C2SC(=S)N(C)C2(C)C)cc1 (stereo not drawn),16.3
5,Cc1cc(C(=O)N2CCN(c3ncccn3)CC2)nn1C,-0.946
6,CCC(C)C(Nc1ncnc2scc(-c3ccccc3)c12)C(=O)O (stereo not drawn),9.25
7,COC(=O)C1=C(C)NC(=S)NC1c1ccc(OCC(=O)N2CC(C)OC(C)C2)c(OC)c1 (stereo not drawn),17.8
8,O=C(COC(=O)CC1CCCC1)Nc1ccc(OC(F)F)cc1,20.6
9,CCCN(CCC)CCCNC(=O)Cn1cnc2sc(C)c(S(=O)(=O)N3CCC(C)CC3)c2c1=O,14.2
10,COc1cc(C2Nn3c(nnc3-c3ccccc3OC)S2)ccc1O (stereo not drawn),14.9
11,CCN(CCNC(=O)C1CCN(c2nnc(-n3cccc3)s2)CC1)c1ccccc1,7.66
12,CC(NC(=O)c1ccccc1Cl)C1COc2ccccc2O1 (stereo not drawn),7.74
13,CCC1(CC)C(=O)C(C)(C)C(=O)OC1c1cccs1 (stereo not drawn),-11.2
14,COc1cccc(C(=O)OCn2nnc3ccccc3c2=O)c1,9.35
15,O=C(c1ccco1)N1CCN(S(=O)(=O)c2cccc(C(F)(F)F)c2)CC1,7.47
16,C=CCn1c(SCC(=O)N(C)c2c(N)n(Cc3ccccc3)c(=O)[nH]c2=O)nnc1-c1ccccc1OC,10.5
17,CC(=O)Nc1ccc(NC(=O)CSc2nccn2Cc2ccc(Cl)cc2)cc1,11.6
18,CCCCCc1c(C)nc(N2CCOCC2)[nH]c1=O,11.2
19,Cc1ccc(OCC(=O)NCC2CCCO2)c(C)c1 (stereo not drawn),11.6
20,COc1cc(C(=O)OC(C)C(=O)Nc2ccc3c(c2)OCO3)ccc1OCc1c(C)noc1C (stereo not drawn),16.5
21,C=CCNC(=O)Cn1nc(-c2ccccc2)ccc1=O,6.7
22,Cc1cc(C)c(C#N)c(OCC(=O)c2ccc(Br)cc2)n1,12.6

# Source: PMC4336329 (PLoS ONE, 2015)
